Source: publication PMC4336329 (PLoS ONE, 2015)
The whole screen tested about 310,000 compounds, of which about 2,200 (0.71%) showed an effect of 50% or more. Effects have a minus sign here. The list shows a part of the results.

Molecular target: human ether-à-go-go-related gene (hERG) potassium channel (human, UniProt Q12809)
Test: primary screen, population patch clamp on CHO cells stably expressing hERG

Sequence of human ether-à-go-go-related gene (hERG) potassium channel (Q12809 whole entry, looked up): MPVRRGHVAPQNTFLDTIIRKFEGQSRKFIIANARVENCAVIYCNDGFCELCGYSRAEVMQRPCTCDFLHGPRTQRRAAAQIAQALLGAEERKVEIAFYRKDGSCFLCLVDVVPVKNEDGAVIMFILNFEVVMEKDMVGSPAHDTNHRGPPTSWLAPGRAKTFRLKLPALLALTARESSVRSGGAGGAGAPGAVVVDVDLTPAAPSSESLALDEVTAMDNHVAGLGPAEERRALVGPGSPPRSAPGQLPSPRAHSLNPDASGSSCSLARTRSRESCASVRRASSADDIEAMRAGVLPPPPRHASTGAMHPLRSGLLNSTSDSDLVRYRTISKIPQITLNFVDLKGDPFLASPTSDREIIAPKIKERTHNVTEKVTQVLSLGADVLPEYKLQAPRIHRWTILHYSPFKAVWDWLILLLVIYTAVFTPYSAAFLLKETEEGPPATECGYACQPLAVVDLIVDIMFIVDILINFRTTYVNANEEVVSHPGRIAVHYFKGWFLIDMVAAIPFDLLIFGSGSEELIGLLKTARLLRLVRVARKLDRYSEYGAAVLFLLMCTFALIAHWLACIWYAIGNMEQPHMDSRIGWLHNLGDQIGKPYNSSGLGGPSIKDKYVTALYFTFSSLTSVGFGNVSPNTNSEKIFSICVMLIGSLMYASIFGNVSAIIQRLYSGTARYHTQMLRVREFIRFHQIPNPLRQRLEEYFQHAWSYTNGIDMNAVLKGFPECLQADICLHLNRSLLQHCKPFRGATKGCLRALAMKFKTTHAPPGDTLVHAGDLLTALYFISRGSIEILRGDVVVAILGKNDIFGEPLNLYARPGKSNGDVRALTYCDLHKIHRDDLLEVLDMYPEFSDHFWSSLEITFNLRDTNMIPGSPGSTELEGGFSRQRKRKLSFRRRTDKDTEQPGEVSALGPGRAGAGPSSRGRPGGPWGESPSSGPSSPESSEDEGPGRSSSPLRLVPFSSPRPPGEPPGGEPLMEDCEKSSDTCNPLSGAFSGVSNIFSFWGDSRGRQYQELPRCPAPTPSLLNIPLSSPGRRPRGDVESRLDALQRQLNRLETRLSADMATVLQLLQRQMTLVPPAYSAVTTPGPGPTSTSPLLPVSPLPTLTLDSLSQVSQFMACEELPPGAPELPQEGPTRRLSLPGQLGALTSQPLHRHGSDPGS

First: CC(C)Oc1c(Br)cc(Br)cc1/C=N/NC(N)=S
Second: Cc1noc(C)c1C(=O)N1CCCC(C(=O)c2cccc(OC(C)C)c2)C1 (centres unmarked)
The “hERG current change (%, negative = inhibition) at 1uM” value of the first is higher: 15.7% for the first, 9.16% for the second.

Compared with `COc1ccc(NC(=O)c2ccc(NC(=O)COC(=O)c3cnc(C)cn3)cc2)cc1`, `Cc1cccc(NC(=O)c2ccc(NC(=O)CC3SC(N4CCCC4)=NC3=O)cc2)n1` (centres unmarked) is higher in “hERG current change (%, negative = inhibition) at 1uM” value: 4.02% for the first, 11.7% for the second.

First: O=C(NCCCn1ccnc1)C(Cl)(Cl)Cl
Second: O=C(NCCCn1ccnc1)c1cc(S(=O)(=O)N2CCOCC2)c(Cl)cc1Cl
The “hERG current change (%, negative = inhibition) at 1uM” value of the first is higher: 9.89% for the first, 8.28% for the second.

Going from `CCCCn1nc(C(=O)Oc2ccc3c(C)cc(=O)oc3c2)c2ccccc2c1=O` to `O=C(NCCCN1CCCCC1)c1ccc2c(=O)n(CCc3ccccc3)c(=O)[nH]c2c1`, the “hERG current change (%, negative = inhibition) at 1uM” value falls from 1.16% to -7.22%.

Going from `O=C(CN(C(=O)CCC(=O)Nc1nccs1)c1cccc(F)c1)NCC1CCCO1` (centres unmarked) to `CS(=O)(=O)N(CC(=O)NC1CC1)c1cccc(F)c1`, the “hERG current change (%, negative = inhibition) at 1uM” value rises from 5.97% to 15.7%.

Compared with `CC1(C)CC(=O)C(CC(=O)Nc2cc(C(F)(F)F)ccc2Cl)C(=O)C1`, `CCOC(=O)C1CCN(S(=O)(=O)c2ccc(NC(C)=O)c(Cl)c2)CC1` is higher in “hERG current change (%, negative = inhibition) at 1uM” value: -0.58% for the first, 6.61% for the second.

Going from `CCn1c(SCC(=O)Nc2cc(OC)ccc2OC)nc2c(c1=O)SCC2` to `CCc1c(O)nc(SCC(=O)N2CCc3cc(OC)c(OC)cc3[C@@H]2C)[nH]c1=O`, the “hERG current change (%, negative = inhibition) at 1uM” value falls from 13.5% to -0.368%.

Going from `Cc1ccc(S(=O)(=O)N2[C@@H](c3cccc(Cl)c3)C(C(=O)O)=CC[C@H]2c2ccc3c(c2)OCO3)cc1` to `Cc1ccc(S(=O)(=O)N2c3ccccc3OCC2c2ccccc2)cc1` (centres unmarked), the “hERG current change (%, negative = inhibition) at 1uM” value rises from 15.2% to 15.7%.

First: Nc1ccc2oc3ccccc3c2c1
Second: COc1ccc(S(=O)(=O)CC(=O)c2cc3cc(Br)ccc3oc2=O)cc1
The “hERG current change (%, negative = inhibition) at 1uM” value of the first is higher: 5.01% for the first, 1.37% for the second.

First: O=C(OCc1cnc(Cl)s1)c1ccccc1Cl
Second: O=C(Nc1cccnc1Cl)c1cccs1
The “hERG current change (%, negative = inhibition) at 1uM” value of the first is lower: -0.356% for the first, 17.2% for the second.

Compared with `CN(C)C(=S)Nc1ccc([N+](=O)[O-])cc1`, `CC(C)C(=O)Nc1ccc(-c2csc(-c3ccccc3)n2)cc1` is lower in “hERG current change (%, negative = inhibition) at 1uM” value: 5.28% for the first, -0.458% for the second.

First: Cc1ccc2c(c1)CC(C)N2S(=O)(=O)c1nnc(NC(=O)CC(C)C)s1 (centres unmarked)
Second: Cc1ccc(OCC(=O)Nc2ccccc2N2CCOCC2)c(C)c1
The “hERG current change (%, negative = inhibition) at 1uM” value of the first is higher: 23.3% for the first, 8.96% for the second.

Compared with `CNC(=O)CSCc1cnn(-c2ccccc2)c1-n1cccc1`, `Cc1cc(N/N=C\c2ccccc2)nc(-c2ccccc2O)n1` is higher in “hERG current change (%, negative = inhibition) at 1uM” value: 9.61% for the first, 13.4% for the second.

Going from `COc1ccccc1Nc1ncc(C(=O)N2CCC(C(N)=O)CC2)c2ccccc12` to `Cn1nc(C(=O)N2CCN(C(c3ccccc3)c3ccccc3)CC2)c2ccccc2c1=O`, the “hERG current change (%, negative = inhibition) at 1uM” value falls from 6.37% to 2.3%.

First: COc1ccnc(-n2cccc2/C=N/O)c1C#N
Second: COc1cc2c(cc1OC)C1=C(C#N)CCC(=NC(=O)c3ccco3)N1CC2
The “hERG current change (%, negative = inhibition) at 1uM” value of the first is lower: 10.7% for the first, 19.1% for the second.

First: CCn1c(=O)c([N+](=O)[O-])c(N2CCN(Cc3ccc4c(c3)OCO4)CC2)c2ccccc21
Second: O=C(CCC1CCCN(C(=O)c2ccc(F)c(F)c2)C1)N1CCN(c2ccccn2)CC1 (centres unmarked)
The “hERG current change (%, negative = inhibition) at 1uM” value of the first is higher: 10.5% for the first, 7.98% for the second.

Compared with `CC(C)(C)OC(=O)N[C@@H](CC(=O)OCc1ccccc1)C(=O)O`, `Cn1c(CNC(=O)C(C)(C)C)nc2ccccc21` is lower in “hERG current change (%, negative = inhibition) at 1uM” value: 8.44% for the first, -5.61% for the second.

Compared with `Cc1cc[n+](CC[n+]2ccc(C)cc2)cc1.[Br-]`, `COc1ccc(S(=O)(=O)N(Cc2cc3cc(C)ccc3[nH]c2=O)CC2CCCO2)cc1` (centres unmarked) is lower in “hERG current change (%, negative = inhibition) at 1uM” value: 6.78% for the first, -1.03% for the second.

Compared with `CCc1nnc(NC(=O)CSc2nnc(CNc3ccc(F)cc3)n2C2CCCCC2)s1`, `CC(NC1CCCCC1)C(=O)NN=C(c1ccccc1)c1ccccc1` (centres unmarked) is higher in “hERG current change (%, negative = inhibition) at 1uM” value: 3.42% for the first, 13% for the second.

Going from `O=C(Nc1cccc(-c2cccc(Cl)c2)c1)C1CCN(CC2CCOC2)CC1` (centres unmarked) to `c1ccc(OCc2noc(CN3CCC(C4CCCCC4)C3)n2)cc1` (centres unmarked), the “hERG current change (%, negative = inhibition) at 1uM” value rises from -15% to 10.6%.

Compared with `COC(=O)c1cc2occc2n1CC(=O)Nc1ccc(OC)c(OC)c1OC`, `NS(=O)(=O)c1ccc(NC(=O)COC(=O)c2ccco2)cc1` is higher in “hERG current change (%, negative = inhibition) at 1uM” value: 11.1% for the first, 15.2% for the second.

First: CCCCCC(=O)Nc1nc2ccccc2[nH]1
Second: O=C(Nc1cccc2ccccc12)OC1C=CS(=O)(=O)C1 (centres unmarked)
The “hERG current change (%, negative = inhibition) at 1uM” value of the first is lower: 9.51% for the first, 11.7% for the second.

Going from `CN(C)S(=O)(=O)N1CCCN(S(=O)(=O)N(C)C)CC1` to `CN(C)C(=O)N1CCC(C(=O)NC2CCCCCCC2)CC1`, the “hERG current change (%, negative = inhibition) at 1uM” value rises from -3.87% to 9.2%.

Compared with `Cc1ccc(C(=O)N/C(=C\c2cccs2)C(=O)N2CCN(C)CC2)cc1C`, `CC(=O)N1CCCC(C(=O)c2ccc3c4c(cccc24)CC3)C1` (centres unmarked) is higher in “hERG current change (%, negative = inhibition) at 1uM” value: -77.2% for the first, 8.66% for the second.

First: [O-][n+]1cccc2ncc3cscc3c21
Second: O=C(NCCCN1CCCC1=O)c1cccc(NS(=O)(=O)c2ccc(Br)cc2)c1
The “hERG current change (%, negative = inhibition) at 1uM” value of the first is higher: 15.3% for the first, 3.02% for the second.

First: O=C(c1cc(C(=O)c2ccco2)cc(C(=O)c2ccco2)c1)c1ccco1
Second: COc1cccc(C(=O)NCC(=O)N/N=C/c2cccc(OC(=O)c3ccc([N+](=O)[O-])cc3)c2)c1
The “hERG current change (%, negative = inhibition) at 1uM” value of the first is higher: 11.8% for the first, 7.67% for the second.

First: O=[N+]([O-])c1cc(Cl)ccc1N1CCCC1
Second: Cc1[nH]n(-c2cccc(Cl)c2)c(=O)c1C=NC12CN3CN(CN(C3)C1)C2
The “hERG current change (%, negative = inhibition) at 1uM” value of the first is higher: 9.55% for the first, 1.89% for the second.

Compared with `CCN(CC)c1ccc2c(C)c(CN3CCOCC3)c(=O)oc2c1`, `O=C(NC(c1ccc(Cl)cc1)P(=O)(Oc1ccccc1)Oc1ccccc1)OCc1ccccc1` (centres unmarked) is higher in “hERG current change (%, negative = inhibition) at 1uM” value: 9.3% for the first, 9.57% for the second.
